# According to the supplement of paper PMC11383711:
# This is one part of the list. Binding of human antibodies (heavy:light variable regions, tested as scFv in one mRNA-display pool) to influenza hemagglutinin, with or without the stem antibody CR9114 bound first. Score = (mean enrichment − median) / interquartile range of that screen; higher = more enriched, 0 = typical non-binder. Active = above the paper's cut-off per screen: stems 28; unblocked H1 Solomon Islands 5, H1 Michigan 3, H3 5, H5 19, H7 2.85, both B 5; blocked 9, 7, H5 10, H7 10, B Phuket 10, B Lee 11.5. Scores are scaled within each screen and are no affinities; replicates correlate at about 0.6 to 0.9, and antibodies rare in the pool are noisier.
# B1: R95-2H06 (protein)
# chain 1: EVQLVESGGVVQQPGGALRLSCAASGLTFDEYAMHWVRQAPGKGLEWVSLITWDGGTTYYADSVKGRFTISRDNSKNSLYLQMNSLRPEDSGLYYCAKDPYGSGSAGWFDPWGQGTLVTVSP
# chain 2: DIQMTQSPSSLSASVGDRVNITCRASQSIIFYLNWYQQRPGKAPKLLIYHASILQSGVPSRFTGSGSGTDFTLTISSLQPEDLATYYCQQSYSIPLTFGGGTKVEIK
# B2: K77-1C12 (protein)
# chain 1: EVQLVESGGGVVQPGGSLRLSCAASGFTFSNYGMHWVRQAPGKGLEWVAFIRYDGSNEYYGDSAKGRFTISRDNSKNTLYLQLISLRPDDTAVYYCANEPDPQSGGLRNDGVVHHDHWGQGTLVTVSS
# chain 2: QSALTQPVSVSGSPGQSITISCTGTSFDVGGYHYVSWYQQYPGKAPKLMIYDVSKRPSGVSNRFSGSKSGITASLTISGLQAEDEADYHCGSYTSSYTWVFGGGTKLTVL
# B3: K77-2F08 (protein)
# chain 1: EVQLVESGEGVVHPGTSLRLSCAASGFTFGSYGLHWVRQAPGKGLEWVAFISYDGGEKSYADSLKGRFAISRDKSKNVLYLEMNTLRAEDTALYSCARTWNSYFFDQWGQGTLVTVSS
# chain 2: QSALTQPASVSGSPGQSITISCTGTGSDVGIYNLVSWYQHHPGKAPKFMIYEVSERPSGVSSRFSGSKSGNTASLTISGLQAEDEANYYCCSYAGSNTWVFGGGTKLTVL
# B4: K77-2A09 (protein)
# chain 1: EVQVVESGGTVVQPGGSLTLSCTTSGFTFDNFAMHWVRQAPGKGLEWVALVGWDSAVIYYADSVQGRFNISRDNSKNSLYLQMNSLRAEDTALYYCAKDDDPGNYGYFHYSLDVWGQGTAVTVTS
# chain 2: DVVMTQSPLSLPVTLGQPASISCRSSQSLVDSYGDTYLNWFQQRPGQSPRRLIYKVSNRDSGVPDRFSGSGSGTDFTLKISRVEADDVGVYYCMQGTHWPLTFGGGTKVEI
# B5: 56.d.01 (protein)
# chain 1: EVQLVESGGGLVQPGGSLRLSCSASGFTVSNYAMHWVRQAPGKGLEYVSAISVNGFSTFYTDSVKGRFTISKDNSKNTLYLQMSSLRPEDTAVYYCVKAESYDFWSGYDWGQGTQVTVSS
# chain 2: EIVLTQSPGTLSLSPGERATLSCRASQSVSSSSLAWYQQKPGQAPRLLIFGASSRATGIPDRFSGSGSGTDFTLTISRLEPEDFAVYYCQQYGSLGTFGGGTKVEIK
# B6: R95-2E12 (protein)
# chain 1: QVQLQESGPGLVKPSETLSLTCVVSDGSISSSTYYWGWIRQPPGKGLEWIGSIYYSGDTYYNPSLKSRVITSVDTSKNQFSLKLSSVTAADTAVYYCARHGPWQLSYFDYWGQGTLVTVSS
# chain 2: QSALTQPRSVSGSPGQSVTISCTGTGSRVGGYHYVSWYQQHPGKAPKLMIYEVNKRPSGVPDRFSGSQSGNTASLTISGLQAEDEADYYCCSYAGSFLLFGGGTKLSV
# Target: Influenza A H1N1 A/Michigan/45/2015 hemagglutinin ectodomain
# Assay: mRNA display binding score; higher = more enriched on the antigen
# Details: antigen blocked with: 2 µM CR9114 IgG
# Procedure: (§1)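 A pool of natively paired antibodies, displayed as scFv on mRNA, was selected once on antigen-coated beads and sequenced before and after; two replicates.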
row,Binder,mRNA display binding score
1,B1,inactive: -0.0579
2,B2,inactive: -0.54
3,B3,inactive: -0.375
4,B4,inactive: 0.111
5,B5,inactive: -0.32
6,B6,inactive: -0.211

# Same assay, conditions: antigen blocked with: nothing
row,Binder,mRNA display binding score
1,B1,inactive: -0.327
2,B2,inactive: -0.64
3,B3,inactive: 0.134
4,B4,inactive: -0.165
5,B5,inactive: 0.0501
6,B6,inactive: -0.66

# Target: Influenza A H1N1 A/Solomon Islands/3/2006 hemagglutinin ectodomain
# Assay: as above
# Details: antigen blocked with: 2 µM CR9114 IgG
# Procedure: as §1
row,Binder,mRNA display binding score
1,B1,inactive: -0.0877
2,B2,inactive: -0.524
3,B3,inactive: -0.172
4,B4,inactive: 1.3
5,B5,inactive: 0.167
6,B6,inactive: -0.604

# Same assay, conditions: antigen blocked with: nothing
row,Binder,mRNA display binding score
1,B1,inactive: -0.52
2,B2,inactive: -0.467
3,B3,inactive: -0.0516
4,B4,inactive: 0.56
5,B5,inactive: -0.214
6,B6,inactive: -0.579

# Target: Influenza A H3N2 A/Singapore/INFIMH-16-0019/2016 hemagglutinin ectodomain
# Assay: as above
# Details: antigen blocked with: nothing
# Procedure: as §1
row,Binder,mRNA display binding score
1,B1,inactive: -0.483
2,B2,inactive: -0.131
3,B3,inactive: -0.52
4,B4,inactive: -0.147
5,B5,inactive: 1.18
6,B6,inactive: -0.0865

# Target: Influenza A H5N1 A/Qinghai/1A/2005 hemagglutinin ectodomain
# Assay: as above
# Details: antigen blocked with: 2 µM CR9114 IgG
# Procedure: as §1
row,Binder,mRNA display binding score
1,B1,inactive: 0.286
2,B2,inactive: -0.852
3,B3,inactive: -0.847
4,B4,inactive: 1.01
5,B5,inactive: -0.25
6,B6,inactive: -0.865

# Same assay, conditions: antigen blocked with: nothing
row,Binder,mRNA display binding score
1,B1,inactive: -0.243
2,B2,inactive: -0.714
3,B3,inactive: 0.0752
4,B4,inactive: -0.0793
5,B5,inactive: 0.69
6,B6,inactive: -0.548

# Target: Influenza A H7N9 A/Shanghai/2/2013 hemagglutinin ectodomain
# Assay: as above
# Details: antigen blocked with: 2 µM CR9114 IgG
# Procedure: as §1
row,Binder,mRNA display binding score
1,B1,inactive: -0.144
2,B2,inactive: -0.453
3,B3,inactive: 0.222
4,B4,inactive: -0.907
5,B5,inactive: -1.01
6,B6,inactive: -0.387

# Same assay, conditions: antigen blocked with: nothing
row,Binder,mRNA display binding score
1,B1,inactive: -0.118
2,B2,inactive: -0.78
3,B3,inactive: 0.216
4,B4,inactive: 0.0835
5,B5,inactive: -0.0636
6,B6,inactive: -0.588

# Target: Influenza B/Lee/1940 hemagglutinin ectodomain
# Assay: as above
# Details: antigen blocked with: 2 µM CR9114 IgG
# Procedure: as §1
row,Binder,mRNA display binding score
1,B1,inactive: 0.198
2,B2,inactive: -0.096
3,B3,inactive: 0.897
4,B4,inactive: 1.75
5,B5,inactive: -0.269
6,B6,inactive: -0.163

# Same assay, conditions: antigen blocked with: nothing
row,Binder,mRNA display binding score
1,B1,inactive: -0.295
2,B2,inactive: -0.424
3,B3,inactive: -0.16
4,B4,inactive: 0.734
5,B5,inactive: -0.229
6,B6,inactive: -0.454

# Target: Influenza B/Phuket/3073/2013 hemagglutinin ectodomain
# Assay: as above
# Details: antigen blocked with: 2 µM CR9114 IgG
# Procedure: as §1
row,Binder,mRNA display binding score
1,B1,inactive: -0.258
2,B2,inactive: 0.373
3,B3,inactive: -0.432
4,B4,inactive: 0.54
5,B5,inactive: -0.588
6,B6,inactive: -0.692

# Same assay, conditions: antigen blocked with: nothing
row,Binder,mRNA display binding score
1,B1,inactive: -0.471
2,B2,inactive: -0.161
3,B3,inactive: -0.064
4,B4,inactive: 1.05
5,B5,inactive: -0.248
6,B6,inactive: -0.4
